PubChem BioAssay AID1745845 (National Center for Advancing Translational Sciences (NCATS), 2022)
About 2,600 (0.72%) of roughly 360,000 compounds were called active. This list was built around the results that the source calls inconclusive (neither active nor inactive); the mix of calls is not that of the screen. Calls come from the whole dose curve; as a rule, active = well fitted inhibition curve with a large enough effect; inconclusive = small, poorly fitted or top-dose-only effect; inactive = no such curve, though single readings can be large or run the other way. Potencies beside an inconclusive call are fits to weak or partial responses and may not hold up.

Assay: Primary qHTS for Inhibitors of ATXN expression; note: nearly all actives have a fitted effect of over 55% in size
Conditions: HEK-293 ATXN2-luciferase reporter, luminescence, 24 h; activity change, negative = inhibition: at 57 µM (top of the series)
Method in brief: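 qHTS (up to 57 uM final) was run with 24 h compound exposure of reporter cells at 37 °C. Each well was multiplexed: SteadyGlo luminescence measured ATXN2-luciferase expression after a fluorogenic Gly-Phe-AFC viability readout (25 uM final).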
% is set by controls: 0 for no effect and ±100 for the full control effect; potency is the fitted concentration of half-maximal effect; tags give direction and shape of the fitted curve.

Potency, inactive:
CSCCC(c1nc2ccccc2[nH]1)n1c(C)nc2ccccc21 (stereo not drawn)
CCCN(CCC)C(=O)Cn1c(=O)n(-c2ccc(CC)cc2)c(=O)c2c3c(sc21)CCC3
COc1ccc(-c2c(C)c3ccc(O)c(CN4CCCCC4C)c3oc2=O)cc1OC (stereo not drawn)
CCN(C(=O)c1c(O)c2c(Cl)cccc2n(C)c1=O)c1ccccc1
Cc1ccc(NC(=O)CNc2ccc(OC(C)C)cc2)cc1
CS(=O)(=O)N1CCc2cc(C(=O)NCc3ccccc3)ccc21
CCCc1nc2oc3c(NCCOCCO)ncnc3c2c2c1COC(C)(C)C2
COc1cccc(C2=CC(c3ccc(N(C)C)cc3)n3nnnc3N2)c1 (stereo not drawn)
COc1ccc(C(C)=O)cc1CN1C(=O)C(Cc2ccccc2)ON=C1c1ncccc1C (stereo not drawn)
CCOC(=O)c1ccc(N2C(=O)c3n[nH]c(C)c3C2c2ccccn2)cc1 (stereo not drawn)
CN(C)Cc1cc2ccccc2c2c1COC2
Cc1[nH]c2ccccc2c1CCN(Cc1cccnc1)C(=S)Nc1ccc(F)cc1
CCOC1=C2[C@H](c3ccccc3)N(S(=O)(=O)c3ccc(C)cc3)[C@H](C(C)C)[C@H]2n2c(=O)n(-c3ccccc3)c(=O)n2C1
Cc1ccc(S(=O)(=O)Nc2c(C)nn(C)c2C)cc1
COc1ccc(S(=O)(=O)Cc2ccc(C(=O)NC3CCCCC3)o2)cc1
COc1cc(-c2nn3c(-c4ccccc4)nnc3s2)cc(OC)c1OC
CCCCNc1ccc(C(=O)O)cc1
CC(CCN1CCC(CN2C(=O)C(=O)NC[C@@H]2Cc2ccccc2)CC1)c1ccccc1 (stereo partly drawn)
Cc1ccc(-c2csc(Nc3ccccn3)n2)cc1
Cc1ccc(NCC(=O)N/N=C\c2ccc([N+](=O)[O-])o2)cc1
Cc1ccc(/C=N/Nc2nc3ccccc3s2)o1
COc1ccc(-n2nnnc2/C=C/Nc2cc(C(F)(F)F)ccc2OC)cc1

Potency, inconclusive:
O=C(Nc1cc(Cl)ccc1O)c1snnc1-c1ccccc1 25.1 µM [inhibitor, single point]
Fc1ccc(/C=N/Nc2nc(-c3cccnc3)nc3ccccc23)cc1 39.8 µM [inhibitor, single point]
C[C@H]1O[C@@H](n2cc(F)c(=O)[nH]c2=O)[C@H](O)[C@H]1O 24.3 µM [inhibitor, partial curve, poor fit]
O=C1C=C(c2n[nH]nc2-c2ccccc2)C[C@@H](c2ccc(F)cc2)C1 14.1 µM [inhibitor, partial curve, poor fit]
O=C(CCc1ccc(O)cc1)c1c(O)cc(O)cc1O 34.3 µM [inhibitor, single point]
Cc1cccc(C2=NN(c3ccccc3)[C@H](CO)[C@H]2c2ccc(Cl)cc2)c1 35.5 µM [inhibitor, single point]
NC(=O)c1cccc2cn(-c3ccc([C@@H]4CCCNC4)cc3)nc12 4.85 µM [inhibitor, full curve]
CCOc1ccc(S(=O)(=O)NC(C)(C)C)cc1-c1nc2c(C(C)(C)C)nn(C)c2c(=O)[nH]1 39.8 µM [inhibitor, single point]
CCCCCCSc1ccc([C@@H]2[C@@H]3C(=O)N(CC)C(=O)[C@@H]3[C@]3(C(=O)OC)CCCCN23)cc1OC 39.8 µM [inhibitor, single point]
COc1cc(-c2nc3ccc(C)cn3c2Nc2ccc(Cl)cc2)ccc1O 35.5 µM [inhibitor, single point]
CC(C)(C)c1nc2ccccc2c2nnc(SCC(=O)Nc3nccs3)n12 28.2 µM [inhibitor, single point]
COc1ccc(CC(=O)Nc2cccc(-c3nnc(-c4ccccc4)o3)c2)cc1OC 8.91 µM [inhibitor, partial curve, poor fit]
Cc1c(CNC(=O)c2nn3c(c2Cl)NC(c2ccccc2)CC3C(F)(F)F)cnn1C (stereo not drawn) 14.1 µM [inhibitor, partial curve, poor fit]
CC(C(=O)Nc1ccccc1C(F)(F)F)n1nc(-c2ccccc2)c2c(c1=O)CCCC2 (stereo not drawn) 25.1 µM [inhibitor, partial curve, poor fit]
O=C(NN=Cc1ccccc1O)NN=Cc1ccccc1O 2.82 µM [inhibitor, full curve, poor fit]
C[C@@H]1ON(C)[C@H]2C[C@H]3c4[nH]c5ccc(-c6ccc7c(c6)OCO7)cc5c4CCN3C[C@@H]12 39.8 µM [inhibitor, single point]
CCCCCCN1C[C@H](n2cc(C3CC3)nn2)[C@@H](O)C[C@@H]1c1ccccc1 39.8 µM [inhibitor, single point]
CC(/C=C/C=C/c1ccccc1)=N/NC(=O)CNc1ccccc1C 10 µM [inhibitor, partial curve, poor fit]
O=C(Nc1cccc(S(=O)(=O)c2cccc(NC(=O)c3ccco3)c2)c1)c1ccco1 35.5 µM [inhibitor, partial curve, poor fit]
Cc1ccc(C(C)C)c(OCc2nnc(SCC(=O)Nc3ncc(C)s3)n2C)c1 31.6 µM [inhibitor, single point]
Cc1ccc(NC(=O)Cc2ccc(NC(=O)N3CCCCc4ccccc43)cc2)cc1 39.8 µM [inhibitor, partial curve, poor fit]
CCCOc1ccc(C(=O)C(CN2CCCC2)c2ccccc2)cc1 (stereo not drawn) 33.6 µM [inhibitor, single point]
Cc1nn(Cc2ccccc2)c(C)c1C(=O)OCC(=O)c1cc(C)n(C2CC2)c1C 35.5 µM [inhibitor, partial curve, poor fit]
CC1CC(C(F)F)n2nc(C(=O)Nc3sc4c(c3C#N)CCC(C(C)(C)C)C4)nc2N1 (stereo not drawn) 22.4 µM [inhibitor, single point]
CCCN(CCC)S(=O)(=O)c1ccc(C(=O)Nc2nnc(-c3cccc(OC)c3)o2)cc1 12.6 µM [inhibitor, partial curve]
COc1ccc(NC(=O)c2ccco2)cc1NC(=O)COc1ccc(C)cc1C 3.98 µM [inhibitor, partial curve, poor fit]
COc1cc(/C=N/NC(N)=S)cc(Br)c1OCc1ccccc1F 11.2 µM [inhibitor, partial curve, poor fit]
Cc1nc2c(nc1C)C(=O)c1ccccc1C2=O 16.8 µM [inhibitor, partial curve, poor fit]
O=C(CSC1=NNC(c2ccccn2)S1)Nc1ccc(C(F)(F)F)cc1 (stereo not drawn) 28.2 µM [inhibitor, single point]
Cc1cc2[nH]c3c4ccccc4nc(C)c3c2cc1C 28.2 µM [inhibitor, partial curve, poor fit]
Cc1ccc(S(=O)(=O)c2c(N)n(CCC(C)C)c3nc4ccccc4nc23)cc1 39.8 µM [inhibitor, single point]
CCc1nc2ccc(C(=O)Nc3cccc(OCC(=O)N(C)C)c3)cn2c1N(C)Cc1cc2ccccc2s1 22.4 µM [inhibitor, single point]
CNC[C@H](O)c1ccc(O)c(O)c1 49.8 µM [inhibitor, partial curve, poor fit]
C=CCN1CCN(C(=O)CCCc2ccccc2)CC1 4.47 µM [inhibitor, partial curve, poor fit]
CC(C)C[C@H]1CN=C(Nc2ccccc2)N1CCCC1CCCC1 31.6 µM [inhibitor, partial curve, poor fit]
CCc1ccc(N2CC(C(=O)N/N=C/c3cc([N+](=O)[O-])ccc3O)CC2=O)cc1 (stereo not drawn) 31.6 µM [inhibitor, single point]
COc1ccc(C(=O)NC2CCCN(Cc3ccc(Cl)cc3)C2)c(OC)c1 (stereo not drawn) 8.44 µM [inhibitor, partial curve, poor fit]
CC(NC(=O)CSc1ncn[nH]1)c1ccc(Cl)cc1Cl (stereo not drawn) 3.55 µM [inhibitor, partial curve]
O=C(c1cc(Br)ccc1Cl)N1CCN(c2ncccn2)CC1 3.55 µM [inhibitor, partial curve, poor fit]
NC(Cc1ccc(Cl)cc1)c1csc(Nc2cc(NCCCO)ncn2)n1 (stereo not drawn) 39.8 µM [inhibitor, single point]

Potency, active:
O=C(N/N=C/c1ccccc1O)C1CC(=O)N(c2ccc(Cl)cc2)C1 (stereo not drawn) 6.31 µM
Cc1ccc(NC(=O)/C=C/c2ccc(S(=O)(=O)N3CCOCC3)cc2)cc1S(=O)(=O)N(C)C 28.2 µM
COc1cc2ncnc(Nc3ccc(F)c(Cl)c3)c2cc1NC(=O)C=CCN1CCCCC1 30.6 µM
CC(C)(C)c1ccc(Oc2ccc(N)cn2)cc1 9.47 µM
COC(=O)[C@]12CCC(C)(C)C[C@@H]1[C@@H]1C(=O)C=C3[C@@]4(C)C=C(C#N)C(=O)C(C)(C)[C@@H]4CC[C@@]3(C)[C@]1(C)CC2 1.72 µM

Activity change, negative = inhibition, inconclusive:
O=C(Nc1nnc(SCc2ccc(F)cc2)s1)c1ccccn1 -76.8% [inhibitor]
